Source: PubChem BioAssay AID2675 (National Center for Advancing Translational Sciences (NCATS), 2010)
About 100 (0.036%) of roughly 280,000 compounds were called active. The inconclusive results got no clear call from the source; some entries with a clear call stand among them for comparison. Calls come from the whole dose curve; as a rule, active = well fitted inhibition curve with a large enough effect in the signal ratio, with a control signal flat (not every such curve was filed as active); inconclusive = small, poorly fitted or top-dose-only effect, or effect the other way, or a change in a side signal; inactive = no such curve, though single readings can be large or run the other way; the % refers to the signal ratio. Where the call is inconclusive, the potency comes from a doubtful curve fit. A note “side channel” means that the fit belongs to a control or component signal, not to the main read-out.

The molecules below were run against Muscleblind-like protein 1 (Homo sapiens) (UniProt Q9NR56) (assay: qHTS Assay for Inhibitors of MBNL1-poly(CUG) RNA binding). Settings: TR-FRET MBNL1-His/biotin-(CUG)12 binding, 665/545 ratio; activity change, negative = inhibition: at 57.5 µM (top of the series).
How it was run: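 MBNL1-His + Biotin-(CUG)12, cpd titration 92 nM–58 uM; Tb anti-His Ab 0.055 ng/ul, SA-XL665 5 nM (final); 60 min RT; ratiometric 665/545 nm, Ex 340 nm; normalized to buffer and full-complex controls.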
% is set by controls: 0 for no effect and ±100 for the full control effect; potency is the fitted concentration of half-maximal effect; tags give direction and shape of the fitted curve or compound fluorescence and quenching.

Sequence of UniProt Q9NR56 (Q9NR56 whole entry, looked up): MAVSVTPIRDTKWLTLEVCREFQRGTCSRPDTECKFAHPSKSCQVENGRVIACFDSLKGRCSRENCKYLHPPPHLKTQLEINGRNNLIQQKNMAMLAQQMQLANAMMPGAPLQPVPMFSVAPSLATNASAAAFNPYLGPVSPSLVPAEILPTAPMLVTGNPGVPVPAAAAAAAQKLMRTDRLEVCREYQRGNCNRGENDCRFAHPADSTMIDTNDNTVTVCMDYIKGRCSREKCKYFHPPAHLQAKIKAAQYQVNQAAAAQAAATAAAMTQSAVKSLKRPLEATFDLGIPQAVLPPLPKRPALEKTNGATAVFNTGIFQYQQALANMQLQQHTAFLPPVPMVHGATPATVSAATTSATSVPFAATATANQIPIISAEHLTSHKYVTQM

| SMILES | Potency | activity change, negative = inhibition |
| --- | --- | --- |
| CC(C)C(NS(=O)(=O)c1c(Cl)cccc1Cl)C(=O)OCC(=O)c1c[nH]c2ccccc12 (configuration not stated) | inconclusive: 39.8 µM [quencher, side channel, partial curve, poor fit] |  |
| Cc1nc(-c2ccccn2)nc(SCC(=O)c2ccc(F)cc2)c1Cl |  | inactive: -8.85% |
| CCC(C)c1ccc(NC(=S)NC2CCN(Cc3ccccc3)CC2)cc1 (configuration not stated) | inconclusive: 0.501 µM [fluorescent, side channel, partial curve] |  |
| CN(C)c1ccc(/C=N/NC2=NS(=O)(=O)c3ccccc32)cc1 | inconclusive: 25.1 µM [quencher, side channel, partial curve] |  |
| CC1(CC(=O)N/N=C/c2ccc(-c3cccc(C(F)(F)F)c3)o2)OCCO1 | inconclusive: 14.1 µM [quencher, side channel, partial curve, poor fit] |  |
| COc1ccc(Nc2nc(N)c([N+](=O)[O-])c(N3CCN(C)CC3)n2)cc1 | inconclusive: 28.2 µM [quencher, side channel, single point] |  |
| CC(C)OC(=O)Cn1nnc2c(cnn2-c2ccccc2)c1=O | inconclusive: 15.8 µM [quencher, side channel, partial curve] |  |
| S=c1[nH]nc(-c2ccco2)n1/N=C/C=C/c1ccccc1 | inconclusive: 31.6 µM [quencher, side channel, single point] |  |
| O=c1cnn(Cc2c(Cl)cccc2Cl)c2ccccc12 | inconclusive: 7.08 µM [quencher, side channel, partial curve] |  |
| O=C(Nc1ccc(N2C(=O)C3C4C=CC(C4)C3C2=O)cc1)Nc1nncs1 (configuration not stated) | inconclusive: 158 µM [inhibitor, single point] |  |
| Cc1ccc(C2C3=C(CCCC3=O)Nc3nc(SCC(=O)NCc4ccco4)[nH]c(=O)c32)cc1 (configuration not stated) |  | inactive: -2.91% |
| NNC(=O)c1sc2cc(C(F)(F)F)cnc2c1-c1cccs1 |  | inactive: -2.83% |
| Cc1ccccc1CS(=O)(=O)CCC(=O)N1CCN(c2ccc(N3CCOCC3)nn2)CC1 |  | inactive: 21.2% |
| NC(=O)CC[C@@H]1NC(=O)[C@H](CO)NC(=O)c2cc([N+](=O)[O-])cc(I)c2OCC[C@@H](C(N)=O)NC1=O | inconclusive: 22.4 µM [quencher, side channel, partial curve] |  |
| COc1ccc(NC(=O)c2ccccc2Oc2ccccc2)c(OC)c1 |  | inactive: -9.53% |
| CC(C)(C)C1CCc2c(sc3nc(SCC(N)=O)nc(N)c23)C1 (configuration not stated) | inconclusive: 39.8 µM [quencher, side channel, partial curve, poor fit] |  |
| c1csc(CSc2nnc3sc4ccccc4n23)c1 | inconclusive: 39.8 µM [quencher, single point] |  |
| c1cnc2ccc(-c3ccc4ncccc4c3)cc2c1 | inconclusive: 14.1 µM [quencher, side channel, partial curve] |  |
| CSc1nc(N)c(C#N)c(-c2ccc(Cl)cc2)c1C#N | inconclusive: 39.8 µM [fluorescent, single point] |  |
| CN(C(=O)COC(=O)c1ccc(-c2ccc(O)cc2)cc1)C1CCS(=O)(=O)C1 (configuration not stated) | active: 39.8 µM |  |
| O=C1c2ccccc2-c2c1cccc2C(=O)N1CCCCC1 | inconclusive: 39.8 µM [quencher, single point] |  |

| SMILES | Potency | activity change, negative = inhibition |
| --- | --- | --- |
| O=C(COc1cccc2ccccc12)N/N=C/c1ccco1 | inconclusive: 28.2 µM [quencher, side channel, partial curve] |  |
| CC1(C)Cc2ccccc2-c2n[nH]c(=S)n21 |  | inactive: 32.2% |
| CCCCNC(=O)CN1C(=O)c2cccc(N)c2C1=O | inconclusive: 25.1 µM [quencher, single point] |  |
| O=C(CSc1nnnn1-c1ccccc1)c1cc2ccccc2oc1=O | inconclusive: 3.16 µM [quencher, side channel, single point] |  |
| Cc1ccc(C(=O)Nc2ccc(Nc3ccccc3)cc2)c(Cl)c1 |  | inactive: -4.15% |
| Cc1ccc([N+](=O)[O-])cc1NC(=O)/C=C/C(=O)O | inconclusive: 28.2 µM [quencher, side channel, single point] |  |
| COc1ccc(N=Cc2c(O)[nH]c3ccccc23)cc1OC | inconclusive: 20 µM [quencher, side channel, partial curve] |  |
| CC1(C)Cc2c(C#N)c(NCCN3CCOCC3)nc(-c3ccco3)c2CO1 | inconclusive: 20 µM [quencher, side channel, single point] |  |
| COc1ccc2c(c1OC)C(=O)N(c1cccc(C)c1)C2=O | inconclusive: 20 µM [quencher, side channel, partial curve] |  |
| COc1cc(S(=O)(=O)N(Cc2ccccn2)Cc2ccccc2Cl)ccc1-n1cnnn1 | inconclusive: 39.8 µM [inhibitor, partial curve] |  |
| COc1ccc(CCNC(=O)CCNC(=O)c2ccc([N+](=O)[O-])cc2)cc1 | inconclusive: 3.55 µM [quencher, side channel, full curve] |  |
| CCOc1ccccc1NC1=C(Cl)C(=O)N(c2ccc(OC)cc2)C1=O |  | inactive: 23.2% |
| O=c1oc2cc(Oc3c([N+](=O)[O-])cc(C(F)(F)F)cc3[N+](=O)[O-])ccc2c2c1CCCC2 | inconclusive: 31.6 µM [quencher, side channel, single point] |  |
| Cc1c(NC(=O)CN2C(=O)NC(C)(c3ccccc3)C2=O)c(=O)n(-c2ccccc2)n1C (configuration not stated) | inconclusive: 0.1 µM [fluorescent, side channel, full curve, poor fit] |  |
| CN=c1c([N+](=O)[O-])nn(-c2ccc3c(c2)OCCO3)n1O | inconclusive: 2.51 µM [quencher, side channel, full curve] |  |
| COc1ccccc1C1C(C(=O)c2cc3ccccc3o2)=C(O)C(=O)N1CCN(C)C (configuration not stated) | inconclusive: 31.6 µM [quencher, single point] |  |
| CC(=O)Nc1ccc(NS(=O)(=O)c2ccc(CN3C(=O)c4cccnc4C3=O)cc2)cc1 | inconclusive: 14.1 µM [quencher, partial curve] |  |
| O=C(N/N=C/c1ccco1)c1cnccn1 | inconclusive: 31.6 µM [quencher, side channel, single point] |  |
| O=[N+]([O-])c1ccccc1SN(Cc1ccccc1)c1ccccn1 | inconclusive: 12.6 µM [quencher, side channel, single point] |  |
| COc1ccc(-c2noc(CCC(=O)Nc3ccc(C)c(C)c3)n2)cc1 |  | inconclusive: -14.5% [phenotype inactive] |
| CCCN(CCC)c1c([N+](=O)[O-])c(=O)oc2ccccc12 | inconclusive: 0.112 µM [fluorescent, side channel, full curve] |  |

| SMILES | Potency | activity change, negative = inhibition |
| --- | --- | --- |
| Cn1ncc([N+](=O)[O-])c1C(=O)Nc1ccccc1 | inconclusive: 31.6 µM [quencher, side channel, partial curve] |  |
| Cn1c(SCC(=O)NNC(=O)Nc2ccccc2)nnc1-c1ccccc1 |  | inactive: 16.1% |
| O=C(/C=C/c1cccs1)N1CCN(c2ccc(O)cc2)CC1 | inconclusive: 11.2 µM [quencher, side channel, partial curve] |  |
| Oc1cc(O)cc(/C=C/c2ccc(O)c(O)c2)c1 | inconclusive: 17.8 µM [quencher, side channel, partial curve] |  |
| COc1ccc(-n2nc(C(=O)NCC(=O)NCc3ccc(F)cc3)c3ccccc3c2=O)cc1 | inconclusive: 4.47 µM [fluorescent, side channel, full curve] |  |
| CCN1CCN(C(=O)c2ccc3c(=O)n(C4CCCC4)c(=S)[nH]c3c2)CC1 |  | inactive: 5.11% |
| CCc1nc(NC(=O)c2sc(C)nc2C)sc1C(=O)OC |  | inactive: 4.09% |
| Fc1ccc(-c2csc(-c3ccncc3)n2)cc1 |  | inactive: 26.6% |
| NS(=O)(=O)c1ccc(NC(=O)c2cc(=O)c3ccccc3o2)cc1 | inconclusive: 3.55 µM [quencher, side channel, full curve] |  |
| CCOC(=O)C1CCN(C(c2cc3ccc(C)cc3[nH]c2=O)c2nnnn2C2CCCCC2)CC1 (configuration not stated) | inconclusive: 39.8 µM [quencher, side channel, single point] |  |
| CC(/C=C/c1ccc2c(c1)OCO2)=N/NC(=O)c1ccc(C)nc1 |  | inactive: 19.3% |
| O=C1/C(=C\c2ccc(O)c(O)c2)N=C2CCCCCN12 | inconclusive: 15.8 µM [quencher, side channel, partial curve] |  |
| Cc1cccc(NC(=O)c2cc([N+](=O)[O-])ccc2Cl)c1O | inconclusive: 11.2 µM [quencher, side channel, partial curve] |  |
| O=C(CC1C(=O)NCCN1C(=O)c1ccc([N+](=O)[O-])cc1)Nc1ccc(F)cc1 (configuration not stated) | inconclusive: 12.6 µM [quencher, partial curve] |  |
| O=C(CN1C(=O)/C(=C/c2ccccc2F)Sc2ccccc21)NCCCN1CCOCC1 | inconclusive: 31.6 µM [quencher, side channel, partial curve] |  |
| O=C(c1cccnc1)c1ncc(C(F)(F)F)cc1Cl |  | inactive: -0.889% |
| CN(C)CCCNC(=O)/C(=C\c1ccc(-c2ccc(Br)cc2)o1)NC(=O)c1ccccc1 | inconclusive: 31.6 µM [quencher, side channel, partial curve] |  |
| CCN1C(=O)c2ccccc2S(=O)(=O)c2ccc(C(=O)NC(C)C)cc21 |  | inactive: -3.55% |
| COC(=O)c1c(C#N)c(N)nc2c1CCCC2 |  | inactive: 9.93% |
| CC(=O)c1sc2nc(-c3ccccc3)cc(C)c2c1N | inconclusive: 3.16 µM [quencher, side channel, full curve] |  |
